According to the supplement of paper PMC8728848:
This is one part of the list.

Tests used:
Test in all cases: glycan array binding signal (z-score within array); higher = stronger binding
Settings in all cases: glycan notation: IUPAC condensed, linker removed
[1] = molecular target: GlcNAc6S(b1-3)Gal(b1-4)GlcNAc
Method in brief: (§1)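 Columns mapping to the same glycan were averaged after glycan names were converted to IUPAC-condensed notation. The data come from 3228 arrays in the Consortium for Functional Glycomics database, limited to those with an available protein sequence. Binding is reported as a within-array Z-score averaged across arrays of one protein sequence and across linkers.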

Kdn(a2-3)Gal(b1-3)GalNAc = molecular target: Kdn(a2-3)Gal(b1-3)GalNAc
Method in brief: as §1

Kdn(a2-3)Gal(b1-3)GlcNAc = molecular target: Kdn(a2-3)Gal(b1-3)GlcNAc
Method in brief: as §1

Kdn(a2-3)Gal(b1-4)Glc = molecular target: Kdn(a2-3)Gal(b1-4)Glc
Method in brief: as §1

Kdn(a2-3)Gal(b1-4)GlcNAc = molecular target: Kdn(a2-3)Gal(b1-4)GlcNAc
Method in brief: as §1

[2] = molecular target: Kdn(a2-3)Gal(b1-4)[Fuc(a1-3)]GlcNAc
Method in brief: as §1

Kdn(a2-6)Gal(b1-4)GlcNAc = molecular target: Kdn(a2-6)Gal(b1-4)GlcNAc
Method in brief: as §1

[3] = molecular target: Man(a1-2)Man(a1-2)Man(a1-3)Man
Method in brief: as §1

[4] = molecular target: Man(a1-2)Man(a1-2)Man(a1-3)[Man(a1-2)Man(a1-3)[Man(a1-2)Man(a1-6)]Man(a1-6)]Man(b1-4)GlcNAc(b1-4)GlcNAc
Method in brief: as §1

[5] = molecular target: Man(a1-2)Man(a1-2)Man(a1-3)[Man(a1-2)Man(a1-6)[Man(a1-3)]Man(a1-6)]Man(b1-4)GlcNAc(b1-4)GlcNAc
Method in brief: as §1

[6] = molecular target: Man(a1-2)Man(a1-2)Man(a1-6)[Man(a1-3)]Man
Method in brief: as §1

Man(a1-2)Man(a1-3)Man = molecular target: Man(a1-2)Man(a1-3)Man
Method in brief: as §1

[7] = molecular target: Man(a1-2)Man(a1-3)[Man(a1-2)Man(a1-6)]Man
Method in brief: as §1

[8] = molecular target: Man(a1-2)Man(a1-3)[Man(a1-2)Man(a1-6)]Man(a1-6)[Man(a1-2)Man(a1-2)Man(a1-3)]Man
Method in brief: as §1

[9] = molecular target: Man(a1-2)Man(a1-3)[Man(a1-2)Man(a1-6)]Man(a1-6)[Man(a1-2)Man(a1-2)Man(a1-3)]Man(b1-4)GlcNAc(b1-4)GlcNAc
Method in brief: as §1

[10] = molecular target: Man(a1-2)Man(a1-3)[Man(a1-3)[Man(a1-6)]Man(a1-6)]Man(b1-4)GlcNAc(b1-4)GlcNAc
Method in brief: as §1

[11] = molecular target: Man(a1-2)Man(a1-3)[Man(a1-6)]Man(a1-6)[Man(a1-2)Man(a1-3)]Man(b1-4)GlcNAc(b1-4)GlcNAc
Method in brief: as §1

[12] = molecular target: Man(a1-2)Man(a1-6)[Man(a1-3)]Man(a1-6)[Man(a1-2)Man(a1-2)Man(a1-3)]Man
Method in brief: as §1

[13] = molecular target: Man(a1-2)Man(a1-6)[Man(a1-3)]Man(a1-6)[Man(a1-2)Man(a1-2)Man(a1-3)]Man(b1-4)GlcNAc(b1-4)GlcNAc
Method in brief: as §1

Man(a1-3)[Man(a1-6)]Man = molecular target: Man(a1-3)[Man(a1-6)]Man
Method in brief: as §1

[14] = molecular target: Man(a1-3)[Man(a1-6)]Man(a1-6)[Man(a1-2)Man(a1-3)]Man(b1-4)GlcNAc(b1-4)GlcNAc
Method in brief: as §1

[15] = molecular target: Man(a1-3)[Man(a1-6)]Man(a1-6)[Man(a1-3)]Man
Method in brief: as §1

[16] = molecular target: Man(a1-3)[Man(a1-6)]Man(a1-6)[Man(a1-3)]Man(b1-4)GlcNAc(b1-4)GlcNAc
Method in brief: as §1

[17] = molecular target: Man(a1-3)[Man(a1-6)]Man(b1-4)GlcNAc(b1-4)GlcNAc
Method in brief: as §1

[18] = molecular target: Man(a1-3)[Man(a1-6)]Man(b1-4)GlcNAc(b1-4)[Fuc(a1-6)]GlcNAc
Method in brief: as §1

Man(a1-6)Man = molecular target: Man(a1-6)Man
Method in brief: as §1

Man(b1-4)GlcNAc = molecular target: Man(b1-4)GlcNAc
Method in brief: as §1

MurNAc(b1-4)GlcNAc = molecular target: MurNAc(b1-4)GlcNAc
Method in brief: as §1

Neu5Ac(a2-3)Gal = molecular target: Neu5Ac(a2-3)Gal
Method in brief: as §1

[19] = molecular target: Neu5Ac(a2-3)Gal(b1-3)GalNAc
Method in brief: as §1

B1: Epa1-NP (Candida glabrata), Q6VBJ0 (protein)
chain: MILNPALFLNKCVCIYTTLILLLLTNGGYATSSNDISLASKDPTTFPLGCSPDITTPKKGLSMELYSYDFRKKGSYPCWDAAYLDPNYPRTGYKSHRLLAKVDGVTGNINFYYHATKGCTPQLGHLPASYNYPKPLTMTNFTMLLYGYFRPKVTGFHTFTISADDLLFVNFGAGNAFDCCRRDSSADHFGNYQAYAIWGSKTAKDELTVHLDAGVYYPIRLFYNNREYDGALSFTFKTESNENTVSDFSEYFFSLDDTEEGCPGLISYDSSCASVKTSKIIGIDYHTETPNENLVPITKTIYHLGIPCTGTTTTPLCGSGFYDPLANKCVTINTSSTSSVTKTTSHTTSKEVSFHSSISSQKTLIPKSIPSPYGPIKSQSIPTEMETSSEISSSEYAFSDVISTPSHSPYTKKHSSLNSSSYTSTVIHSLTSYSISQGIFSTSLSEQNITSKSSTDKFSTATSMSNNITQSSIIISQFSTNNENYTTTSMHTSSDKISTETLNNSISTTTSILFSNSSTILKNNTTIISSDKDTHYHPVNPTIVCSTNKTEIICASITQPSISNSNNHWSSSVLKFNSTTVRSTLPSSAGSNETSINVPFSSSTESNTSTSSTSTSNSKMVRSTLPSSAGSNETSISVPFSSSTESNTSTSSTSTSNSKMVRSTLPSSAGSNETSINVPFSSSTESNTSTSSTSTSNSKTVRSTPFSSAGIIMTSLSQRNNKSASSYASSNSKCYNTADSCRKVHSTPSYLLTSSYTSEGVDYDCSLVSTKLKINDTNCVNNKHTTKSCLKTSVTTTIPTLEIKTARKSSSNTIGLHSYPTSSPNKSISSAPIIGYISSFKTIKTASPSYQTSDLTTITTITSLNNPGSTAVENTHESNDKSRKTSSNDISSKHSVIKETKDAVESSNKSHQTNTLKCSSIIIASSSHNSYESLGGTTLTLTLSKVYSPQNNDTLPFLEISEVNPSRTVLPESSKMMQYLTSTEERNKTARNTIATNIVSISTFHFEGEGNAIRMGYTQLLLMLIGIIVMNIGT
glycan array binding signal (z-score) [1]: 0.881 | glycan array binding signal (z-score) (Kdn(a2-3)Gal(b1-3)GalNAc): -0.289 | glycan array binding signal (z-score) (Kdn(a2-3)Gal(b1-3)GlcNAc): -0.331 | glycan array binding signal (z-score) (Kdn(a2-3)Gal(b1-4)Glc): -0.3 | glycan array binding signal (z-score) (Kdn(a2-3)Gal(b1-4)GlcNAc): -0.3 | glycan array binding signal (z-score) [2]: -0.201 | glycan array binding signal (z-score) (Kdn(a2-6)Gal(b1-4)GlcNAc): -0.271 | glycan array binding signal (z-score) [3]: -0.333 | glycan array binding signal (z-score) [4]: -0.551 | glycan array binding signal (z-score) [5]: -0.551 | glycan array binding signal (z-score) [6]: -0.335 | glycan array binding signal (z-score) (Man(a1-2)Man(a1-3)Man): -0.318 | glycan array binding signal (z-score) [7]: -0.337 | glycan array binding signal (z-score) [8]: -0.276 | glycan array binding signal (z-score) [9]: -0.303 | glycan array binding signal (z-score) [10]: -0.551 | glycan array binding signal (z-score) [11]: -0.421 | glycan array binding signal (z-score) [12]: -0.287 | glycan array binding signal (z-score) [13]: -0.285 | glycan array binding signal (z-score) (Man(a1-3)[Man(a1-6)]Man): -0.31 | glycan array binding signal (z-score) [14]: -0.303 | glycan array binding signal (z-score) [15]: -0.29 | glycan array binding signal (z-score) [16]: -0.413 | glycan array binding signal (z-score) [17]: -0.374 | glycan array binding signal (z-score) [18]: -0.281 | glycan array binding signal (z-score) (Man(a1-6)Man): -0.287 | glycan array binding signal (z-score) (Man(b1-4)GlcNAc): -0.324 | glycan array binding signal (z-score) (MurNAc(b1-4)GlcNAc): -0.285 | glycan array binding signal (z-score) (Neu5Ac(a2-3)Gal): -0.315 | glycan array binding signal (z-score) [19]: -0.292
